# Results reported in the supplement of paper PMC3334620.
# Over roughly 33,000 sequences, “E-score (-0.5 to 0.5)” has its median near -0.013; the highest 2% begin near 0.3. The list shows a part of the results.
# Biological target: T1, Msn1 (UniProt P22148)
# T1 sequence: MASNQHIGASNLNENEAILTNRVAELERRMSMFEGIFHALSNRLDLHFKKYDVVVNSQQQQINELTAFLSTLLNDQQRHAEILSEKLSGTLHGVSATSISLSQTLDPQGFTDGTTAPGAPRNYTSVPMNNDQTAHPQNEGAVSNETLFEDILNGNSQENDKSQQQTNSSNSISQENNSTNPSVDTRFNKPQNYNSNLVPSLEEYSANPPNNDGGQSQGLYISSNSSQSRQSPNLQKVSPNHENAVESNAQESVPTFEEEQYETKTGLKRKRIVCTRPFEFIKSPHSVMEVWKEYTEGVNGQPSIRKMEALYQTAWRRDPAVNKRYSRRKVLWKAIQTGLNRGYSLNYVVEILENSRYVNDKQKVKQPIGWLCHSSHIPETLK
# Experiment: PBM E-score (8-mer binding enrichment) (E-score (-0.5 to 0.5)); higher = stronger / more preferred TF binding; most listed sequences are background and not binding sites
# Conditions: protein concentration: 200 nM; construct: GST-full length
# Procedure: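 Universal 'all 10-mer' protein binding microarrays (Agilent AMADID 015681) probed with GST-tagged S. cerevisiae TFs (full-length or DBD) made by in vitro transcription/translation (PURExpress), about 100-200 nM. Bound TF was detected with fluorescent anti-GST. Each ungapped 8-mer (which stands for itself and its reverse complement) is scored by the PBM enrichment score (E-score), a modified Wilcoxon-Mann-Whitney statistic from -0.5 to +0.5, computed with the Universal PBM Analysis Suite. Scale: above 0.35 generally sequence-specific binding.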
row,Sequence,PBM E-score
1,AGTACATA,0.221
2,GCAGTTCC,-0.253
3,CGAGGGCG,-0.271
4,ACACAGAC,0.274
5,AGGTTAAA,0.0318
6,ACCATATC,-0.0262
7,ATATATGG,0.106
8,CAAAGATG,-0.0546
9,TCCTCGCA,-0.212
10,CCATCCTC,-0.199
11,AGTCCTGG,0.217
12,CGCATCTC,-0.0148
13,AGCACTCG,-0.198
14,AGGAAAGA,-0.113
15,ACCCGTCG,-0.337
16,AACTTTGA,0.12
17,AGTTTGAC,0.127
18,ATCAAGAC,0.232
19,CCACTTCC,-0.0564
20,ACGGATAA,0.164
21,CGCGGAAA,0.0573
22,CAGCGACA,0.121
23,GAAACACA,0.227
24,GACCCATC,-0.205
25,CATTTCGG,0.133

row,Sequence,PBM E-score
1,CTGCTGCA,-0.00425
2,CGCAGAAC,0.0202
3,CTCTACGA,0.0394
4,AGCCTCCG,-0.213
5,TACATAGA,0.117
6,CAGTGTCA,-0.105
7,CCACGCTA,-0.00274
8,ACAGGTTG,0.00529
9,CCGTTTCA,0.0581
10,AGAGGGGA,-0.268
11,GTCTCACA,0.211
12,AACCGGCG,0.0609
13,GATTGGAA,0.00883
14,AAGTCATA,0.263
15,GATACTAA,0.133
16,ACGCAAGA,0.0419
17,GCAACCGC,0.0753
18,ATGGAAAG,0.0304
19,CAGGGGGG,-0.464
20,AGCTATTG,0.00139
21,CCTACCGC,-0.191
22,AGGTGTTC,0.0847
23,ATGTCGCA,0.38
24,CGGAACAC,0.171
25,ATACGCGC,-0.0824

row,Sequence,PBM E-score
1,AGTCGTTG,-0.0976
2,CAGAGGGA,-0.175
3,AAGAAGAA,0.0585
4,GCGATATA,-0.0439
5,ATACTTAC,0.00959
6,GAATCAAA,0.112
7,CGATGCAG,-0.162
8,ACTTCCTG,-0.0301
9,TAATGCCA,-0.0104
10,GCCTCAAC,-0.137
11,ATAAGGGG,-0.179
12,ACTTATCA,0.0602
13,AGTTGTCA,0.295
14,TAGACACA,0.163
15,TCTATCCA,0.0076
16,ACCCCGAC,-0.166
17,CGGGCTAA,-0.144
18,ACTTACCA,0.0149
19,CCTTGGGA,0.137
20,AGTCGAGG,-0.0749
21,TAATAGAA,0.115
22,AGGGTCAG,-0.2
23,AGACAGAC,0.279
24,CTCAACTA,0.0111
25,GTAGACTA,-0.241

row,Sequence,PBM E-score
1,ATATAGAA,0.12
2,GAACGAAC,-0.0579
3,AAAGTCCA,0.378
4,AATCCCTA,-0.0113
5,ACTATCCT,-0.0439
6,AGGGCTAG,-0.0949
7,AGCCTGGA,-0.247
8,CACAGTTC,0.00142
9,CACTTTCG,0.19
10,CATAGCGA,-0.0154
11,CGTCACCC,-0.163
12,AGGTGGGG,-0.147
13,GTCCCTGA,0.187
14,AAAATGGC,0.185
15,GAGATGGC,0.0672
16,GTCCAGAA,0.195
17,CCTTATGC,-0.0713
18,GAGCTATC,-0.159
19,ATGACTGG,-0.114
20,CCGTCCCG,-0.137
21,GCGGCGGA,0.0803
22,CCGGCAAC,-0.107
23,AGGGACGA,0.261
24,CAAGTAGA,-0.00656
25,TGCATTAA,0.0944

row,Sequence,PBM E-score
1,TCTTACCA,-0.111
2,CTAGGAAA,-0.145
3,CCACTAAC,-0.00382
4,TGCATGAA,0.011
5,CACCGTCG,-0.196
6,ATTTTGAA,0.126
7,GACTCAAC,0.0406
8,AGCAGATA,-0.101
9,CTTGCATA,-0.0469
10,GATACAAC,0.212
11,ATTTACGG,0.199
12,AAAGAGGT,-0.0054
13,ACCACTAT,-0.0739
14,ACCCAGCG,-0.291
15,AAGGGATT,-0.169
16,ACTGAGGA,-0.103
17,ATTTAGCC,0.107
18,CCATTTAC,0.0112
19,ATGATGAA,0.0742
20,CACATCCC,-0.14
21,GGCGATAA,-0.0633
22,AGGCCGAA,0.0167
23,GACATTAC,0.442
24,GACGAGGA,0.0929
25,ACAAGGTG,0.118

row,Sequence,PBM E-score
1,CTCTGGTA,0.114
2,AGCCGTGG,-0.268
3,AGATCGTC,-0.0524
4,ACCAACTG,-0.164
5,TATCGCGA,0.0816
6,CATAGTGG,-0.235
7,AGAAGCAG,-0.0206
8,CCCGAATA,0.055
9,AAGTAGAC,-0.0005
10,AAATTATT,0.249
11,AACCTGAA,-0.226
12,CATGGCAA,-0.02
13,TGCTGTAA,0.0524
14,TTCAACAA,0.074
15,CCAACTAG,0.00517
16,GCCGAACA,-0.00806
17,GGGCTTGA,-0.135
18,CCAATTGC,-0.189
19,ACACAGGG,0.02
20,GGGGATCA,-0.32
21,ACTTCGGG,0.0559
22,CAAAGCAC,-0.0075
23,CTGTCTTC,-0.083
24,AAAGTCCC,0.344
25,TAGCGGAA,-0.136

row,Sequence,PBM E-score
1,ACAGCTAG,-0.0767
2,ATCCACTG,0.0323
3,ACCTTGCT,-0.0572
4,ATATGGAT,0.0668
5,CGGCACGC,-0.127
6,TGCCAAAA,0.135
7,AAAGTTCA,-0.0151
8,ACTTTACG,0.0667
9,GTATTAAC,0.101
10,CGTGGGAA,-0.0248
11,GATAGAGC,0.0176
12,ATGATACC,0.139
13,AACGCTGC,-0.166
14,CAAATGTG,0.229
15,AGGGAGAT,-0.206
16,AAGTGAAC,0.102
17,GTGCTCCA,-0.183
18,ACAAAAGC,0.364
19,GCACACAA,0.117
20,AAGTGTCA,-0.00431
21,GCTCGTAA,-0.154
22,GCCACTAA,-0.1
